Assay results taken from PubChem BioAssay AID1745846 (National Center for Advancing Translational Sciences (NCATS), 2022).
Among all 1,400 compounds or so, about 30 (2%) were called active. The inconclusive results got no clear call from the source; some entries with a clear call stand among them for comparison. The call rests on the fitted dose curve; in most records, active means well fitted inhibition curve with a large enough effect; inconclusive means small, poorly fitted or top-dose-only effect; inactive means flat fitted curve, though single readings scatter. A potency beside an inconclusive call is a rough fit, not a confirmed value.

Assay: Firefly Luciferase Counterscreen for Inhibitors of ATXN expression
Details: luminescence; series mostly up to 57.5 µM
In short: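 Recombinant firefly luciferase at 10 nM final in 50 mM Tris pH 7.5, 10 mM MgCl2, 0.05% BSA, 0.01% Tween20 with substrate; compounds up to 57 uM final, 10 min room temperature, end-point luminescence. Buffer-only wells define 100% inhibition.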
Potency means the concentration at half of the fitted maximal effect; tags describe the fitted curve by direction and shape.

Question: For `O=C(NCc1ccccc1)c1ccc(C(=O)N(C2CCCCC2)C2CCCCC2)cc1`, which Potency is on record?
Answer: inactive

Question: Which Potency does the source give for `Cc1ccc(OCC(=O)N/N=C/c2cccc3cccnc23)cc1` here?
Answer: inconclusive: 25.1 µM [inhibitor, partial curve]

Question: For `CC1(C(=O)Nc2cnc3ccccc3c2)CCN1C(=O)c1ccccc1CCc1ccccc1` (stereo unspecified), which Potency is on record?
Answer: inactive

Question: For `CC(=O)Nc1ccc(CNc2nc(NC(C)C)nc3cc(-c4ccccc4)sc23)cc1`, which Potency is on record?
Answer: active: 14.1 µM

Question: Which Potency does the source give for `Cc1csc(NC(=O)COCC(=O)O)c1-c1nc2ccccc2s1` here?
Answer: inconclusive: 28.2 µM [inhibitor, single point]

Question: For `COC(/C(=N/O)c1ccc(Cl)cc1)c1ccccc1` (stereo unspecified), which Potency is on record?
Answer: inconclusive: 22.4 µM [inhibitor, single point]

Question: With `CC(=O)Oc1ccc(N(C(C)=O)S(=O)(=O)c2ccc(C)cc2C)c2ccccc12` as the compound, how does the Potency read?
Answer: inactive

Question: Which Potency does the source give for `COc1ccc(Nc2nc(N3CCCC3)c3ccccc3n2)cc1` here?
Answer: inconclusive: 22.4 µM [inhibitor, partial curve, poor fit]

Question: For `Cc1nc(-c2cccc(NC(=O)c3cccc(S(=O)(=O)N4CCCC4)c3)c2)cs1`, which Potency is on record?
Answer: inconclusive: 25.1 µM [inhibitor, partial curve, poor fit]

Question: For `Cc1ccc(S(=O)(=O)N(C)C)cc1NC(=O)c1cncc(Br)c1`, which Potency is on record?
Answer: inactive

Question: With `CN(C)CCNc1cccc2sc3ccc(O)cc3c(=O)c12` as the compound, how does the Potency read?
Answer: inconclusive: 22.4 µM [inhibitor, partial curve, poor fit]

Question: Which Potency does the source give for `N=c1n(CCN2CCCCC2)c2ccccc2n1CC(O)c1ccc(Cl)c(Cl)c1` (stereo unspecified) here?
Answer: inactive

Question: For `CN(C)CCCN(C(=O)c1ccc(S(=O)(=O)N(C)Cc2ccccc2)cc1)c1nc2cc3c(cc2s1)OCO3`, which Potency is on record?
Answer: inactive

Question: Which Potency does the source give for `Cc1cc(/C=N/n2cnnc2)c(C)n1-c1ccc(OCc2ccc(Cl)cc2Cl)cc1` here?
Answer: inconclusive: 25.1 µM [inhibitor, partial curve, poor fit]

Question: For `Cc1ccc(C)c(/C=C/C(=O)c2ccccc(=O)c2O)c1`, which Potency is on record?
Answer: inconclusive: 28.2 µM [inhibitor, single point]

Question: For `CCCC[C@@H](CNC)NC[C@H](NCCCCC1CCCCC1)C(C)C`, which Potency is on record?
Answer: inactive

Question: Which Potency does the source give for `COc1ccc(-n2cc(CN(C)C(C)c3ccncn3)c(-c3cccc(F)c3)n2)cc1` (stereo unspecified) here?
Answer: inconclusive: 28.2 µM [inhibitor, partial curve, poor fit]

Question: With `COc1cc(/C=C(/C#N)C(=O)NCCc2c[nH]c3ccccc23)ccc1OCc1ccccc1F` as the compound, how does the Potency read?
Answer: inactive

Question: For `Cc1ccc(Cl)cc1-c1ccc(C=Nc2ccc(N3CCOCC3)cc2)o1`, which Potency is on record?
Answer: inconclusive: 25.1 µM [inhibitor, partial curve, poor fit]

Question: Which Potency does the source give for `C=CCOC(=O)C1=C[C@@H](c2ccc3c(c2)OCO3)C[C@@H](OCCCCO)O1` here?
Answer: inconclusive: 22.4 µM [inhibitor, partial curve, poor fit]

Question: Which Potency does the source give for `O=C(/C=C/c1ccccc1)c1cc(Br)ccc(=O)c1O` here?
Answer: inconclusive: 25.1 µM [inhibitor, partial curve]

Question: For `O=C(Nc1nc(-c2ccccn2)cs1)c1ccco1`, which Potency is on record?
Answer: inconclusive: 25.1 µM [inhibitor, partial curve]

Question: Which Potency does the source give for `COc1ccc(CCC(=O)Nc2c(-c3ccc(N(C)C)cc3)[nH][nH]c2=O)cc1` here?
Answer: inconclusive: 25.1 µM [inhibitor, partial curve, poor fit]

Question: For `O=C(Nc1nc(-c2ccccn2)cs1)c1ccccc1-n1cnnn1`, which Potency is on record?
Answer: inactive

Question: With `C/C(=N\NC(=O)c1cccc2ccccc12)c1ccccn1` as the compound, how does the Potency read?
Answer: inconclusive: 28.2 µM [inhibitor, single point]

Question: Which Potency does the source give for `COc1ccc(/C=C2\SC(=S)N(CCCC(=O)Nc3ccccn3)C2=O)cc1OC` here?
Answer: inactive

Question: Which Potency does the source give for `Oc1ccc(Cl)cc1Sc1cc(Cl)ccc1O` here?
Answer: inconclusive: 28.2 µM [inhibitor, partial curve, poor fit]

Question: Which Potency does the source give for `Cc1ccc(C(C)C)c(OCc2ccc(C(=O)N/N=C/c3cccc(O)c3O)cc2)c1` here?
Answer: inconclusive: 25.1 µM [inhibitor, partial curve]

Question: Which Potency does the source give for `O=C(N/N=C/c1c(O)n(Cc2ccccc2)c(=O)c2ccccc12)c1cccnc1` here?
Answer: inconclusive: 31.6 µM [inhibitor, partial curve, poor fit]

Question: With `NC(Cc1ccccc1)c1csc(Nc2ccc(C(F)(F)F)cn2)n1` (stereo unspecified) as the compound, how does the Potency read?
Answer: inactive

Question: For `Cc1cc(=O)[nH]c(N=N/C(=N/Nc2ccccc2C)c2ccccc2)n1`, which Potency is on record?
Answer: inconclusive: 11.2 µM [inhibitor, partial curve]

Question: Which Potency does the source give for `CC1CCCN(c2ncnc3c2cnn3-c2ccc(Cl)cc2)C1` (stereo unspecified) here?
Answer: active: 0.0891 µM

Question: For `COc1cccc(C=NNC(=O)c2ccncc2)c1O`, which Potency is on record?
Answer: inconclusive: 28.2 µM [inhibitor, partial curve]

Question: Which Potency does the source give for `Nc1ccc(OC(=O)Nc2ccc(O)cc2)cc1` here?
Answer: inconclusive: 20 µM [inhibitor, partial curve, poor fit]

Question: For `CCc1ccc(N2CC(C(=O)N/N=C/c3cc([N+](=O)[O-])ccc3O)CC2=O)cc1` (stereo unspecified), which Potency is on record?
Answer: inconclusive: 22.4 µM [inhibitor, partial curve]

Question: With `CC(C)(C)c1ccc(Oc2ccc(N)cn2)cc1` as the compound, how does the Potency read?
Answer: inconclusive: 25.1 µM [inhibitor, single point]

Question: For `CCC(=O)NC(c1ccc(C)cc1)c1cc([N+](=O)[O-])c2cccnc2c1O` (stereo unspecified), which Potency is on record?
Answer: inconclusive: 25.1 µM [inhibitor, partial curve, poor fit]

Question: With `COc1cc(OC)c2cc(C(=O)N/N=C/c3cccc(OC)c3O)[nH]c2c1` as the compound, how does the Potency read?
Answer: inconclusive: 11.2 µM [inhibitor, partial curve, poor fit]

Question: With `C=CCc1cccc(/C=N/NC(=O)C[n+]2ccccc2)c1O` as the compound, how does the Potency read?
Answer: inactive

Question: For `COc1ccc(CC(N)c2csc(NC(=O)c3cccc(OC(F)(F)F)c3)n2)cc1` (stereo unspecified), which Potency is on record?
Answer: inactive

Question: Which Potency does the source give for `CCOC(=O)CSc1cccc2cccnc12` here?
Answer: inactive

Question: With `O=C(c1ccc(C#Cc2ccccc2)o1)N1CCN(c2ccccn2)CC1` as the compound, how does the Potency read?
Answer: inconclusive: 25.1 µM [inhibitor, partial curve, poor fit]

Question: For `CC(C)(C)c1nnc(N/N=C/c2ccccc2O)n(N)c1=O`, which Potency is on record?
Answer: inconclusive: 28.2 µM [inhibitor, single point]

Question: For `O=[N+]([O-])c1cc(Cl)cc(/C=N\Nc2ccccn2)c1O`, which Potency is on record?
Answer: inconclusive: 12.6 µM [inhibitor, partial curve, poor fit]

Question: Which Potency does the source give for `O=C(NN=C1CCCC1)c1cc(-c2ccc(F)cc2)nc2ccccc12` here?
Answer: inconclusive: 3.16 µM [inhibitor, partial curve, poor fit]

Question: With `O=C(N/N=C/c1c(O)ccc2ccccc12)c1ccc(CO)nc1` as the compound, how does the Potency read?
Answer: inconclusive: 22.4 µM [inhibitor, partial curve, poor fit]

Question: For `CCc1nc2ccc(C(=O)Nc3cc(-c4ccccc4)ccc3OC)cn2c1N(CC)CC(=O)N(C)C`, which Potency is on record?
Answer: inconclusive: 28.2 µM [inhibitor, partial curve]

Question: With `O=C(N/N=C/c1ccccc1O)C1CCCC1` as the compound, how does the Potency read?
Answer: inconclusive: 25.1 µM [inhibitor, single point]

Question: With `CC(=O)c1cccc(NC(=O)c2cccc3c(-c4cccc(C(N)=O)c4)coc23)c1` as the compound, how does the Potency read?
Answer: inconclusive: 3.55 µM [inhibitor, partial curve, poor fit]

Question: For `CC1=NN(c2nc3ccccc3[nH]2)C(=O)C1Cc1ccccc1` (stereo unspecified), which Potency is on record?
Answer: active: 25.1 µM

Question: With `O=C(CSc1n[nH]c(-c2ccccn2)n1)Nc1cccc(Cl)c1` as the compound, how does the Potency read?
Answer: inconclusive: 25.1 µM [inhibitor, single point]

Question: Which Potency does the source give for `COCCCNC1=C(Cl)C(=O)c2ccccc2C1=O` here?
Answer: inconclusive: 25.1 µM [inhibitor, single point]

Question: For `Cc1nc(-c2ccc(Cl)cc2)sc1C(=O)NN`, which Potency is on record?
Answer: inconclusive: 17.8 µM [inhibitor, partial curve, poor fit]

Question: For `Cc1ccc(OCC(=O)c2cc(C)n(Cc3cccs3)c2C)c([N+](=O)[O-])n1`, which Potency is on record?
Answer: inconclusive: 14.1 µM [inhibitor, partial curve]

Question: For `COc1ccc(C(NC(=O)c2cccnc2)c2cc(Cl)c3cccnc3c2O)cc1OC` (stereo unspecified), which Potency is on record?
Answer: inactive

Question: With `COc1cccc(/C=N/NC(=O)c2cc(-c3ccccn3)nc3ccccc23)c1O` as the compound, how does the Potency read?
Answer: inconclusive: 25.1 µM [inhibitor, partial curve]

Question: Which Potency does the source give for `COc1cc(C(=O)NNC(=O)c2ccc3ccccc3n2)cc(OC)c1OC` here?
Answer: inconclusive: 25.1 µM [inhibitor, single point]

Question: For `CC(=O)c1ccc(N2CCc3ccccc3C2)c([N+](=O)[O-])c1`, which Potency is on record?
Answer: inconclusive: 25.1 µM [inhibitor, partial curve, poor fit]

Question: Which Potency does the source give for `COc1cccc(CNc2nc(NCc3ccccc3)nc3ccsc23)c1` here?
Answer: inactive

Question: Which Potency does the source give for `CC(C)C(=O)NC(c1ccccc1)c1cc([N+](=O)[O-])c2cccnc2c1O` (stereo unspecified) here?
Answer: inconclusive: 15.8 µM [inhibitor, partial curve]

Question: For `CCOC(=O)c1cnc2ccc(OC)cc2c1Nc1ccc(N2CCN(C)CC2)cc1`, which Potency is on record?
Answer: inconclusive: 28.2 µM [inhibitor, partial curve, poor fit]

Question: For `NC(Cc1ccc(C(F)(F)F)cc1)c1csc(Nc2ccc(C(=O)c3ccccc3)cc2)n1` (stereo unspecified), which Potency is on record?
Answer: inactive

Question: With `Cc1cc2sc3ccc(C#CC4(O)CCCCC4)cc3c(=O)c2cc1C` as the compound, how does the Potency read?
Answer: active: 0.251 µM

Question: With `Cc1[nH]n(-c2ccccc2)c(=O)c1/C=N/NC(=O)c1ccccc1F` as the compound, how does the Potency read?
Answer: inconclusive: 25.1 µM [inhibitor, single point]

Question: With `CCOC(=O)C(C(C)=O)c1c(Br)c(O)c(O)c2c(C(=O)c3ccc(C)cc3)coc12` (stereo unspecified) as the compound, how does the Potency read?
Answer: inconclusive: 22.4 µM [inhibitor, partial curve]

Question: Which Potency does the source give for `COc1ccc(-c2noc(CCCC(=O)NC3CCCC3)n2)cc1` here?
Answer: inconclusive: 28.2 µM [inhibitor, partial curve, poor fit]
